From PubChem BioAssay AID686978 (National Center for Advancing Translational Sciences (NCATS), 2013)
The whole screen tested about 420,000 compounds, of which about 64,000 (15%) were called active. Inconclusive results, whose numbers are uncertain, are shown with a selection of clear calls. The call rests on the fitted dose curve; in most records, active means well fitted inhibition curve with a large enough effect; inconclusive means small, poorly fitted or top-dose-only effect; inactive means flat fitted curve, though single readings scatter. Potencies of inconclusive entries are left out as doubtful fits.

assay: qHTS for Inhibitors of human tyrosyl-DNA phosphodiesterase 1 (TDP1): qHTS in cells in absence of CPT; conditions: DT40 Tdp1-/- hTDP1 cells, no CPT, ATP luminescence, 48 h; activity change, negative = growth inhibition: at 46.2 µM (top of the series) unless noted; further: nearly all actives have a fitted effect of over 55% in size
Summary of the method: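 A cellular qHTS used chicken DT40 cells lacking endogenous Tdp1 but carrying stably transfected human TDP1. Compounds were applied without camptothecin, and cell growth kinetics were judged by ATP-dependent luminescence after ≥48 hr.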
On the % scale 0 is the no-effect control and ±100 the full control effect; potency means the concentration at half of the fitted maximal effect; tags describe the fitted curve by direction and shape.

SMILES	Potency	activity change, negative = growth inhibition
Fc1ccccc1Nc1nc(N2CCOCC2)nc(N2CCOCC2)n1	inconclusive [inhibitor, partial curve]	–
COc1ccc(C(=O)Nc2ccc(S(=O)(=O)Nc3nccnc3OC)cc2)cc1	inconclusive [inhibitor, full curve, poor fit]	–
CC1CCN(CCCCOc2ccc(Br)cc2)CC1	inconclusive [inhibitor, single point]	–
Oc1ccc(Cl)cc1CNc1cnc2ccccc2c1	active: 29.1 µM	–
CCC(Sc1nc2ncccc2o1)C(=O)Nc1ccc(OC)c(OC)c1 (stereo unspecified)	–	inactive: -15%
CCc1nc(SCc2ccccc2C)n[nH]1	inconclusive [inhibitor, single point]	–
Cc1n[nH]c(C)c1S(=O)(=O)N(C)Cc1ccco1	–	inactive: 4.43%
CC1(C(=O)Nc2ccc3nc[nH]c3c2)CCN1C(=O)C/C=C/c1ccccc1 (stereo unspecified)	inconclusive [inhibitor, single point]	–
C#CCOCCOCCOCCNc1nc(N2CCN(C(=O)C([C@@H](C)CC)n3cc(C(N)CO)nn3)CC2)nc(N2CCN(C(=O)C([C@@H](C)CC)n3cc(C(N)COC(=O)C(F)(F)F)nn3)CC2)n1 (stereo partly specified)	–	inactive: 0.333%
CCc1cccc(CC)c1NC(=O)COC(=O)c1ccc(F)c(S(=O)(=O)N(CC)CC)c1	–	inconclusive: -30.4% [inhibitor]
COc1ccc(NC(=O)Nc2ccc3nsnc3c2)cc1	inconclusive [inhibitor, single point]	–
COC(=O)c1c(NC(=O)C2CCCO2)sc2c1CCC2 (stereo unspecified)	inconclusive [inhibitor, single point]	–
CC(c1ccc2c(c1)OCO2)n1c(=S)[nH]c2ccccc2c1=O (stereo unspecified)	inconclusive [inhibitor, partial curve]	–
O=C(N/N=C/c1c(Nc2cccc(C(F)(F)F)c2)nc2ccccn2c1=O)c1ccccc1[N+](=O)[O-]	inconclusive [inhibitor, partial curve]	–
CC1C(=O)OC2CC34C5CC(C(C)(C)C)C36C(OC(=O)C6O)OC4(C(=O)O5)C21O (stereo unspecified)	–	inactive: -3.59%
CCC1CN(C(=O)N2CCC(C(=O)N3CCN(c4ccccc4F)CC3)CC2)c2ccccc2O1 (stereo unspecified)	active: 16.4 µM	–
COc1ccc(Cl)cc1NS(=O)(=O)c1cccc(C(=O)NC2CCC(O)CC2)c1 (stereo unspecified)	–	inactive: -6.37%
CCC(CC)C(=O)N(C)c1c(C)nc2c(OCC3CCCCC3)cccn12	active: 13 µM	–
CSc1oc(-c2cccs2)nc1S(=O)(=O)c1ccc(Br)cc1	inconclusive [inhibitor, single point]	–
CCOc1ccccc1N(C)C(=O)c1c2c(nc3ccccc13)C(=O)N(C1CCCCC1)C2	inconclusive [inhibitor, single point]	–
COc1ccccc1NC(=O)CN(c1ccc(C)cc1)S(=O)(=O)c1c(C)n[nH]c1C	inconclusive [inhibitor, partial curve, poor fit]	–
Cc1oc2c(c1C(=O)NCCO)CCCC2	–	inactive: -13%
COC(=O)[C@@]1(Cc2ccc(OC)cc2)[C@H]2c3cc(C(=O)N4CCCC4)n(Cc4ccc(OC(F)(F)F)cc4)c3C[C@H]2CN1C(=O)c1ccccc1	active: 18.4 µM	–
C=CCn1c(=O)[nH]c(=O)c2c(N)c(C(=O)c3ccc(OC)cc3)sc21	–	inconclusive: -31.9% [inhibitor]

SMILES	Potency	activity change, negative = growth inhibition
COc1ccc(C2CC(=O)c3cc(-c4nc(-c5cccc(Cl)c5)cs4)c(=O)[nH]c3C2)cc1 (stereo unspecified)	–	inactive: 0.34%
CCOC(=O)C1=CCC(c2cccs2)N(S(=O)(=O)c2ccc(C)cc2)C1 (stereo unspecified)	inconclusive [inhibitor, single point]	–
Cc1nc(NC(=O)C2CCCC2)sc1Cc1ccc2c(c1)OCO2	inconclusive [inhibitor, single point]	–
Cc1n[nH]c(=S)n1/N=C/c1ccccc1	–	inactive: -1.64%
O=C(CSc1nc2ccccc2[nH]1)NCCc1ccc(Cl)cc1	inconclusive [inhibitor, single point]	–
CCCCn1c(CNC(=O)Cc2ccccc2)nc2ccccc21	inconclusive [inhibitor, single point]	–
CN1C(=O)/C(=C/c2cc3c(cc2Br)OCO3)NC1=S	–	inactive: 2.58%
O=C(NCc1cccc(Cl)c1)c1ccc2nc(N3CCOCC3)sc2c1	inconclusive [inhibitor, single point]	–
CNC(=O)c1cnc2sc(N3CCCCCC3)nn2c1=O	–	inactive: -0.223%
CCOC(=O)CN(C(=O)COc1nc(-c2ccccc2)cc(C)c1C#N)c1cccc(OC)c1	inconclusive [inhibitor, single point]	–
O=C(c1cc(C(F)(F)F)cc(C(F)(F)F)c1)N1CCC[C@@]2(CCN(Cc3ccccc3)C2)C1	inconclusive [inhibitor, single point]	–
COc1ccccc1C(=O)NC(=S)Nc1ccc(NC(=O)c2ccco2)cc1	inconclusive [inhibitor, single point]	–
COc1ccc([C@H]2CC(=O)C=C(c3ccc4ncccc4c3)C2)cc1OC	active: 20.6 µM	–
COc1ccc(-c2ccc3c(c2)c(Sc2ccccc2)c(-c2ccccc2)n3C)cn1	inconclusive [inhibitor, single point]	–
CC(C)C(NC(=O)CN1C(=O)c2cccc3cccc1c23)C(C)C	inconclusive [inhibitor, single point]	–
Cn1c(=O)c2c(nc(NCCc3ccccc3)n2CC(=O)NCCc2ccccc2)n(C)c1=O	–	inactive: 5.07%
CCOc1ccc(N(CC)C(=O)CCc2nc(-c3ccccc3F)no2)cc1	inconclusive [inhibitor, single point]	–
CC1CCCCN1C(=O)Cn1c(=O)oc2cc(S(=O)(=O)N3CCCCC3)ccc21 (stereo unspecified)	–	inactive: -16.6%
Oc1ccc(N2CCN(c3nc(-c4cccs4)nc4ccccc34)CC2)cc1	inconclusive [inhibitor, single point]	–
COCCCN(C(=O)c1ccccc1F)c1nc(-c2ccc(OC)cc2)cs1	inconclusive [inhibitor, single point]	–
CC(c1ccccc1)n1ccnc1CO (stereo unspecified)	–	inactive: -6.33%
CC1(C)[C@@H]2CC[C@@]1(C)[C@H](OC(=O)CSC#N)C2	inconclusive [inhibitor, partial curve, poor fit]	–
COc1cc(C(=O)Nc2ccncc2)cc(OC)c1OC	inconclusive [inhibitor, single point]	–
CC(C)(C)c1ccc(/C=C2\Oc3cc(O)ccc3C2=O)cc1	inconclusive [inhibitor, partial curve, poor fit]	–

SMILES	Potency	activity change, negative = growth inhibition
N#Cc1cc([N+](=O)[O-])cnc1Nc1ccccc1	–	inactive: -19.7%
CCN(CC)CCOc1ccc(-c2nc3cc(Cl)ccc3s2)cc1	active: 4.73 µM	–
O=C(NCCc1ccccc1)c1ccc(Cn2c(SCc3ccccc3)nc3cccnc32)cc1	inconclusive [inhibitor, partial curve, poor fit]	–
CCOC(=O)C1CCCN(C(=O)c2cc3ccccc3cc2OC)C1 (stereo unspecified)	inconclusive [inhibitor, single point]	–
COC(=O)C[C@H](NC(=O)Cn1cnc2c(SC)nc(N)nc21)C(=O)OC	–	inactive: 20.9%
COc1ccc(/C=N/NC(=O)c2nnn(-c3nonc3N)c2CN(C)C2CCCCC2)cc1	–	inactive: 13.9%
CN(CCc1cn[nH]c1)Cc1nc(C(c2ccccc2)c2ccccc2)no1	inconclusive [inhibitor, single point]	–
Cc1cc(C)n(/N=C/c2ccc(C(C)C)cc2)c(=O)c1C#N	active: 8.2 µM	–
O=C(Nc1cccnc1)C1Cc2c(-c3cccc(F)c3)ccnc2O1 (stereo unspecified)	inconclusive [inhibitor, single point]	–
Cc1ccc(C(=O)NC(=S)Nc2ccc(Oc3ccc(Cl)cc3)cc2)cc1	active: 20.6 µM	–
O=C(c1ccncc1)N1CCc2ccccc2C1	–	inactive: 1.28%
CCC(Sc1nnc(-c2ccc(OC)c(OC)c2)c(-c2ccc(OC)c(OC)c2)n1)C(=O)NC1CCCC1 (stereo unspecified)	inconclusive [inhibitor, single point]	–
COc1ccccc1C(CCNS(=O)(=O)c1ccc(C)cc1)c1ccco1 (stereo unspecified)	inconclusive [inhibitor, single point]	–
O=C(CCN1CCC(c2ccccc2)C1)c1ccccc1 (stereo unspecified)	active: 3.66 µM	–
CCc1ccc(NC(=O)C(Cc2ccccc2)NS(=O)(=O)c2ccc3c(c2)c(=O)n(C)c(=O)n3C)cc1 (stereo unspecified)	inconclusive [inhibitor, single point]	–
C(=N\Nc1nc2ccccc2[nH]1)/c1ccc2ncccc2c1	active: 0.82 µM	–
Cc1cc(C(=O)COC(=O)C2=COCCO2)c(C)n1-c1ccccc1	inconclusive [inhibitor, single point]	–
CCn1c(SCC(=O)Nc2ccc3c(c2)c2ccccc2n3CC)nnc1-c1ccco1	–	inactive: -7.29%
CCN(CC)CCNC(=O)c1sc2nc(-c3ccccc3)cn2c1C	inconclusive [inhibitor, single point]	–
CCOc1cc(/C=N/Nc2cccc(C(=O)O)c2)ccc1OCC(=O)N1CCCCC1	–	inactive: 0.325%
CC(C)(C)c1cc(S(=O)(=O)CCc2ccccn2)cc(C(C)(C)C)c1F	active: 14.6 µM	–
c1ccc(CCc2nnc3n2CCN(Cc2ccc4ccccc4n2)CC3)cc1	–	inactive: -29.5%
Oc1cccc(/C=N\Nc2nncc(-c3ccccc3)n2)c1	inconclusive [inhibitor, single point]	–
